According to PubChem BioAssay (NCI):
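The compound was tested at five concentrations on cells cultured in 96-well plates, with a 48-hour exposure period. The concentration for 50% growth inhibition is given as GI50. TGI: total growth inhibition.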

Tested on: NCI-H322M lung
Test: NCI-60 cell line screen, 48 h

SMILES	GI50 [µM]	TGI [µM]
COc1cc2c(O[C@@H]3OC[C@H](OC(C)=O)[C@H](OC(C)=O)[C@H]3O)c3c(c(-c4ccc5c(c4)OCO5)c2cc1OC)C(=O)OC3	> 5.79	> 10
CNC(=O)c1c(NC(=O)c2ccccc2C(F)(F)F)sc2c1CCC(=O)C2	3.17	> 100
O=C(CSc1nc2ccccc2c(=O)n1-c1ccc(Cl)cc1)N/N=C/c1ccc(Oc2ccc(Cl)cc2)cc1	3.02	15
CC(C)=CCC[C@](C)(O)[C@H]1CC[C@]2(C)[C@@H]1CC[C@@H]1[C@@]3(C)CC[C@H](N)C(C)(C)[C@@H]3CC[C@]12C	1.72	3.11
Cc1cccc(N2CCN(C3=C(Cl)C(=O)c4ncccc4C3=O)CC2)c1	14.4	28.2
Cc1ccc(S(=O)(=O)c2nc(-c3ccc(F)cc3)oc2S(C)(=O)=O)cc1	> 100	> 100
